The values that follow come from PubChem BioAssay AID1240 (Sanford-Burnham Center for Chemical Genomics, 2008).

Screen size: about 50,000 compounds; about 800 (1.6%) showed an effect of 50% or more. The list shows a part of the results.

This test deals with Bcl-2-like protein 10 (Homo sapiens) (UniProt Q9HD36). Briefly: Phenotype converters, Bcl-B/TR3 peptide binding displacement, primary biochemical FP (AID 1240).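 Also: 0% = Bcl-B with tracer peptide and DMSO and 100% = tracer peptide lacking Bcl-B.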 To be noted: GST-Bcl-B / FITC-TR3 peptide fluorescence polarization; stronger effect = higher value; compound at 3.75 mg/L.
UniProt Q9HD36, sequence (Q9HD36 whole entry, looked up): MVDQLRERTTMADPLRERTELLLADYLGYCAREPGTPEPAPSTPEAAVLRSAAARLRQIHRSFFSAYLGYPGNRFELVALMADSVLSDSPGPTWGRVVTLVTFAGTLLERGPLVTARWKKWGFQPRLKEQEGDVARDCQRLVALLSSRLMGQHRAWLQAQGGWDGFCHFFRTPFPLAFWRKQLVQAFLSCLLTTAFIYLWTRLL
As for `CCOC(=O)c1ccccc1NC(=O)COc1ccc(Cl)cc1C`, the displacement is 2.5%. Take `CCOc1cc(/C=C2\SC(=S)N(Nc3ccccc3)C2=O)ccc1O`: the displacement is -4.5%.

In the case of `CC(=O)CC(O)(c1ccccc1)C(F)(F)C(F)F` (stereo unspecified), the displacement is 6.4%. Consider `O=C(Nc1ccccc1O)c1cc(S(=O)(=O)N2CCCCC2)ccc1Cl`, for which the displacement is -13.5%.

As for `Nc1ccc(Nc2ccncc2[N+](=O)[O-])cc1`, the displacement turned out to be 19%. Regarding `Cc1cccc(CN2CCN(S(=O)(=O)c3ccc(Cl)cc3)CC2)c1`, the displacement was -20.2%.

In the case of `CCc1cccc(C)c1NC(=O)COc1cccc(Cl)c1`, the displacement is -5%. In the case of `Cc1ccc2nsnc2c1NC(=O)c1cc(I)ccc1Cl` it was 10%; in that of `Cc1onc(-c2ccccc2Cl)c1C(=O)NCCC(c1ccccc1)c1ccccc1`, 7.3%; in that of `O=C(O)C1C(C(=O)NCCc2ccccc2)C2C=CC1C21CC1` (stereo unspecified), -5.1%. In the case of `CC(C)CC(=O)N1CCN(Cc2ccccc2C(F)(F)F)CC1`, the displacement was -11%. As for `CCOC(=O)C1=C(c2ccccc2)N=c2s/c(=C\c3ccc(O)cc3)c(=O)n2C1c1cccs1` (stereo unspecified), the figure is -0.5%; as for `Clc1cc2c(cc1CSc1nc3ccccc3[nH]1)OCO2`, -14.4%. In the case of `COCCN1C(=O)C(=O)/C(=C(/O)c2ccccc2)C1c1ccccc1` (stereo unspecified) it was -9.4%.

In the case of `N#C/C(=C\c1ccccc1Cl)c1nc(-c2cccs2)cs1`, the displacement is -9.2%. Turning to `Cc1c(OCc2ccc(Cl)cc2)ccc2c3c(c(=O)oc12)CCC3`, the displacement worked out at 5.6%. On to `Cc1onc(-c2ccccc2Cl)c1C(=O)Nc1c(C)n(C)n(-c2ccccc2)c1=O`, for which the displacement was -2.9%. As for `CNC(=O)c1ccc(CN2CCc3ccccc3C2)cc1`, the figure is 11.3%; as for `CCC(c1ccccc1)c1nnc(N)s1` (stereo unspecified), 4.5%. As to `COc1ccc(C2CC(=O)C3=C(C2)Nc2ccccc2NC3c2ccc(OC(C)=O)c(OC)c2)cc1OC` (stereo unspecified), the displacement was -3.7%.

With `CCCCNCCCCCCOc1ccc(C(C)C)cc1`, the displacement came to 11.7%. `Cc1cccc(N2CCN(C(=S)c3ccc(OCc4ccccc4)cc3)CC2)c1`: the displacement was 9%. Turning to `CN1C(CC(=O)Nc2ccc(Br)cc2)c2ccccc2CC1(C)C` (stereo unspecified), the displacement turned out to be 0.7%.

As for `N#C/C(=C\c1cccs1)c1nc(-c2ccc(Br)cc2)cs1`, the displacement was determined as 5.9%. `Cc1ccc(C(=O)/C=C/c2ccc(OCc3ccccc3)cc2)cc1`: the displacement amounted to 11.1%. On to `COc1ccc(C2CC(c3ccc(F)cc3)=NN2c2ccccc2F)cc1OC` (stereo unspecified), for which the displacement is -4.3%. In the case of `O=C(O)c1ccc2c(c1)C(=O)N(c1cccc(C(F)(F)F)c1)C2=O`, the displacement stood at 11.2%. As for `CCN(CC)CCN1C(=O)C(O)=C(C(=O)/C=C/c2ccccc2)C1c1ccc([N+](=O)[O-])cc1` (stereo unspecified), the figure is -19.8%; as for `C/C(Cn1nnc([N+](=O)[O-])n1)=N/NC(=O)c1ccc(Cl)cc1`, 1.1%; as for `CC1CCN(CCOCCOc2ccccc2Br)CC1`, -8.9%. As for `COc1ccccc1OCCn1cc(C=C2C(=O)N(C)C(=O)N(C)C2=O)c2ccccc21`, the figure is 3.5%; as for `COc1ccc(N2COc3ccc4c5c(c(=O)oc4c3C2)CCC5)cc1`, 10.4%. In the case of `O=C(O)c1ccc(Nc2nc(-c3ccc(Br)cc3)cs2)cc1`, the displacement was 10.5%.

Turning to `Cc1ccc(OCC(=O)Nc2ccc(C)cc2[N+](=O)[O-])c(Br)c1`, the displacement was determined as 2.5%. Consider `O=C(Nc1ccc(Cc2ccncc2)cc1)c1cccc(Cl)c1`, for which the displacement was determined as 1.4%. On to `COc1ccc(-n2c(C)nc3ncnc(-c4ccccc4)c32)cc1`, for which the displacement was -0.4%. For the molecule `CCC(=O)N1c2ccccc2NC2=C(C(=O)CC(C)(C)C2)C1c1ccc(N(CC)CC)cc1` (stereo unspecified), the displacement was -5.3%. For `O=C(NCc1ccccc1Cl)/C(=C\c1ccc([N+](=O)[O-])o1)NC(=O)c1ccccc1`, the displacement is -0.3%. Turning to `COc1cccc(C2/C(=C(\O)c3ccc(F)cc3)C(=O)C(=O)N2CCCCCC(=O)O)c1` (stereo unspecified), the displacement was -2.3%. In the case of `O=c1oc2cc(OCCc3ccccc3)ccc2c2c1CCC2`, the displacement stood at 9.1%. As to `O=C(c1ccc([N+](=O)[O-])cc1)N1CCN(Cc2ccccn2)CC1`, the displacement is -17.2%.

Turning to `O=C(O)c1ccc(CN2CCOCC2)cc1`, the displacement stood at 13.7%.

Turning to `CC1(C)CC(NC(=O)c2cccc(Cl)c2)CC(C)(C)N1`, the displacement was -7.3%. As to `CC1(C)Cc2ccccc2/C(=C/C(=S)Nc2ccccc2)N1`, the displacement is -25.1%.

Take `COc1ccc(CSc2nnc(C)s2)cc1F`: the displacement is -4.9%. For the molecule `CC(=O)Nc1ccc2oc(-c3ccc(Cl)cc3)nc2c1`, the displacement is -10.4%. With `CCN(C(=O)c1ccc(Cl)c([N+](=O)[O-])c1)c1ccccc1`, the displacement was -7.3%. `CC1CCN(S(=O)(=O)c2ccc(N)cc2)CC1`: the displacement is -20.9%. Turning to `Cc1ccc(N2C(=O)c3ccccc3NC2c2cccc(O)c2)cc1` (stereo unspecified), the displacement is 7.4%. For the molecule `C=C(C)Cn1c(-c2ccccc2)n[nH]c1=S`, the displacement is -1.7%. In the case of `NC(=O)C1=CN(Cc2ccccc2)C=CC1` it was 30.2%; in that of `C=CCN1C(=O)C(Cc2ccc(OCC)cc2)SC1=Nc1ccc(C(=O)O)cc1` (stereo unspecified), -2.4%; in that of `COc1ccc(Cl)cc1NC(=O)c1cc(-c2ccccc2Cl)nc2ccccc12`, -2.5%. With `Cc1ccc(-c2cc(NC(=O)c3ccc(Cl)cc3Cl)n[nH]2)cc1`, the displacement came out at 9.9%. `O=C(Cc1ccc([N+](=O)[O-])cc1)Nc1cccc(-c2nc3ccccc3o2)c1`: the displacement was -18.6%. As for `Cc1ccc(N2NC(=O)/C(=C/c3cccc(Br)c3)C2=O)cc1`, the displacement is 12.6%. As for `CCOC(=O)CSc1nnc2c3ccccc3n(CC)c2n1`, the figure is -10.4%. In the case of `COc1cc(/C=N/NC(=O)CNC(=O)/C=C/c2ccco2)ccc1O`, the displacement was 1.2%. In the case of `COC(=O)C1=CN(Cc2cccs2)C=C(C(=O)OC)C1c1cccs1` it was 2.4%; in that of `Cc1cc2nc(-c3ccc(C)c(NC(=O)c4ccco4)c3)oc2cc1C`, -5.2%. Regarding `O=C(N/N=C(/C=C/c1ccccc1[N+](=O)[O-])c1ccccc1)c1ccc(O)cc1`, the displacement was -1.7%. `COc1cccc(NC2=CC(=O)CC(c3ccccc3)C2)c1` (stereo unspecified): the displacement turned out to be 9.3%. As for `CCOC(=O)c1conc1-c1ccc(N(CC)CC)cc1`, the displacement amounted to 2.7%. Take `Cc1cccnc1N(C(=O)c1ccccc1F)C(=O)c1ccccc1F`: the displacement is -2.2%. As to `Cc1ccccc1C(=O)Nc1c(C(=O)N2CCN(Cc3ccccc3)CC2)cnn1-c1ccccc1`, the displacement is -11.9%. In the case of `Cc1cccc(NC(=O)C(=O)NCCC(C)C)c1` it was 7.8%; in that of `O=C(O)CCCCCN1C(=O)C(O)=C(C(=O)/C=C/c2ccccc2)C1c1ccc2c(c1)OCO2` (stereo unspecified), -2.6%; in that of `CCC1(C)CC(CC(=O)O)(c2ccc(C)cc2)CCO1` (stereo unspecified), -0.2%. Consider `CCOC(=O)C1=C(C)NC(=O)NC1c1cc([N+](=O)[O-])ccc1OC` (stereo unspecified), for which the displacement was -1.6%.

In the case of `Cc1nc2ccccc2nc1-c1ccc([N+](=O)[O-])cc1`, the displacement stood at 18.9%. With `Cc1ccc(NC(=O)C(=O)NCCCO)cc1`, the displacement worked out at 13.2%.
